In patent publication US20110319597A1 (CAPHALON AUSTRALIA, published 2011):

B1: TNFα dAb Fc variant Q38D (Fc fusion, name in Kabat numbering)
chain: DIQMTQSPSSLSASVGDRVTITCRASQAIDSYLHWYQDKPGKAPKLLIYSASNLETGVPSRFSGSGSGTDFTLTISSLLPEDFATYYCQQVVWRPFTFGQGTKVEIKRV[human IgG1 Fc with changes left out]
B2: TNFα dAb Fc variant Q38L (Fc fusion, name in Kabat numbering)
chain: DIQMTQSPSSLSASVGDRVTITCRASQAIDSYLHWYQLKPGKAPKLLIYSASNLETGVPSRFSGSGSGTDFTLTISSLLPEDFATYYCQQVVWRPFTFGQGTKVEIKRV[human IgG1 Fc with changes left out]
B3: TNFα dAb Fc variant Q38P (Fc fusion, name in Kabat numbering)
chain: DIQMTQSPSSLSASVGDRVTITCRASQAIDSYLHWYQPKPGKAPKLLIYSASNLETGVPSRFSGSGSGTDFTLTISSLLPEDFATYYCQQVVWRPFTFGQGTKVEIKRV[human IgG1 Fc with changes left out]
B4: TNFα dAb Fc variant R61A (Fc fusion, name in Kabat numbering)
chain: DIQMTQSPSSLSASVGDRVTITCRASQAIDSYLHWYQQKPGKAPKLLIYSASNLETGVPSAFSGSGSGTDFTLTISSLLPEDFATYYCQQVVWRPFTFGQGTKVEIKRV[human IgG1 Fc with changes left out]
B5: TNFα dAb Fc variant R61D (Fc fusion, name in Kabat numbering)
chain: DIQMTQSPSSLSASVGDRVTITCRASQAIDSYLHWYQQKPGKAPKLLIYSASNLETGVPSDFSGSGSGTDFTLTISSLLPEDFATYYCQQVVWRPFTFGQGTKVEIKRV[human IgG1 Fc with changes left out]
B6: TNFα dAb Fc variant R61L (Fc fusion, name in Kabat numbering)
chain: DIQMTQSPSSLSASVGDRVTITCRASQAIDSYLHWYQQKPGKAPKLLIYSASNLETGVPSLFSGSGSGTDFTLTISSLLPEDFATYYCQQVVWRPFTFGQGTKVEIKRV[human IgG1 Fc with changes left out]
B7: TNFα dAb Fc variant R61P (Fc fusion, name in Kabat numbering)
chain: DIQMTQSPSSLSASVGDRVTITCRASQAIDSYLHWYQQKPGKAPKLLIYSASNLETGVPSPFSGSGSGTDFTLTISSLLPEDFATYYCQQVVWRPFTFGQGTKVEIKRV[human IgG1 Fc with changes left out]
B8: TNFα dAb Fc variant R61Q (Fc fusion, name in Kabat numbering)
chain: DIQMTQSPSSLSASVGDRVTITCRASQAIDSYLHWYQQKPGKAPKLLIYSASNLETGVPSQFSGSGSGTDFTLTISSLLPEDFATYYCQQVVWRPFTFGQGTKVEIKRV[human IgG1 Fc with changes left out]
B9: TNFα dAb Fc variant R61S (Fc fusion, name in Kabat numbering)
chain: DIQMTQSPSSLSASVGDRVTITCRASQAIDSYLHWYQQKPGKAPKLLIYSASNLETGVPSSFSGSGSGTDFTLTISSLLPEDFATYYCQQVVWRPFTFGQGTKVEIKRV[human IgG1 Fc with changes left out]
B10: TNFα dAb Fc variant R61Y (Fc fusion, name in Kabat numbering)
chain: DIQMTQSPSSLSASVGDRVTITCRASQAIDSYLHWYQQKPGKAPKLLIYSASNLETGVPSYFSGSGSGTDFTLTISSLLPEDFATYYCQQVVWRPFTFGQGTKVEIKRV[human IgG1 Fc with changes left out]
B11: TNFα dAb Fc variant S60Y (Fc fusion, name in Kabat numbering)
chain: DIQMTQSPSSLSASVGDRVTITCRASQAIDSYLHWYQQKPGKAPKLLIYSASNLETGVPYRFSGSGSGTDFTLTISSLLPEDFATYYCQQVVWRPFTFGQGTKVEIKRV[human IgG1 Fc with changes left out]
B12: TNFα dAb Fc variant S63A (Fc fusion, name in Kabat numbering)
chain: DIQMTQSPSSLSASVGDRVTITCRASQAIDSYLHWYQQKPGKAPKLLIYSASNLETGVPSRFAGSGSGTDFTLTISSLLPEDFATYYCQQVVWRPFTFGQGTKVEIKRV[human IgG1 Fc with changes left out]
B13: TNFα dAb Fc variant S63D (Fc fusion, name in Kabat numbering)
chain: DIQMTQSPSSLSASVGDRVTITCRASQAIDSYLHWYQQKPGKAPKLLIYSASNLETGVPSRFDGSGSGTDFTLTISSLLPEDFATYYCQQVVWRPFTFGQGTKVEIKRV[human IgG1 Fc with changes left out]
B14: TNFα dAb Fc variant S63H (Fc fusion, name in Kabat numbering)
chain: DIQMTQSPSSLSASVGDRVTITCRASQAIDSYLHWYQQKPGKAPKLLIYSASNLETGVPSRFHGSGSGTDFTLTISSLLPEDFATYYCQQVVWRPFTFGQGTKVEIKRV[human IgG1 Fc with changes left out]
B15: TNFα dAb Fc variant S63L (Fc fusion, name in Kabat numbering)
chain: DIQMTQSPSSLSASVGDRVTITCRASQAIDSYLHWYQQKPGKAPKLLIYSASNLETGVPSRFLGSGSGTDFTLTISSLLPEDFATYYCQQVVWRPFTFGQGTKVEIKRV[human IgG1 Fc with changes left out]
B16: TNFα dAb Fc variant S63P (Fc fusion, name in Kabat numbering)
chain: DIQMTQSPSSLSASVGDRVTITCRASQAIDSYLHWYQQKPGKAPKLLIYSASNLETGVPSRFPGSGSGTDFTLTISSLLPEDFATYYCQQVVWRPFTFGQGTKVEIKRV[human IgG1 Fc with changes left out]
B17: TNFα dAb Fc variant S65A (Fc fusion, name in Kabat numbering)
chain: DIQMTQSPSSLSASVGDRVTITCRASQAIDSYLHWYQQKPGKAPKLLIYSASNLETGVPSRFSGAGSGTDFTLTISSLLPEDFATYYCQQVVWRPFTFGQGTKVEIKRV[human IgG1 Fc with changes left out]
B18: TNFα dAb Fc variant S65D (Fc fusion, name in Kabat numbering)
chain: DIQMTQSPSSLSASVGDRVTITCRASQAIDSYLHWYQQKPGKAPKLLIYSASNLETGVPSRFSGDGSGTDFTLTISSLLPEDFATYYCQQVVWRPFTFGQGTKVEIKRV[human IgG1 Fc with changes left out]
B19: TNFα dAb Fc variant S65P (Fc fusion, name in Kabat numbering)
chain: DIQMTQSPSSLSASVGDRVTITCRASQAIDSYLHWYQQKPGKAPKLLIYSASNLETGVPSRFSGPGSGTDFTLTISSLLPEDFATYYCQQVVWRPFTFGQGTKVEIKRV[human IgG1 Fc with changes left out]
B20: TNFα dAb Fc variant S65Q (Fc fusion, name in Kabat numbering)
chain: DIQMTQSPSSLSASVGDRVTITCRASQAIDSYLHWYQQKPGKAPKLLIYSASNLETGVPSRFSGQGSGTDFTLTISSLLPEDFATYYCQQVVWRPFTFGQGTKVEIKRV[human IgG1 Fc with changes left out]
B21: TNFα dAb Fc variant S65Y (Fc fusion, name in Kabat numbering)
chain: DIQMTQSPSSLSASVGDRVTITCRASQAIDSYLHWYQQKPGKAPKLLIYSASNLETGVPSRFSGYGSGTDFTLTISSLLPEDFATYYCQQVVWRPFTFGQGTKVEIKRV[human IgG1 Fc with changes left out]
B22: TNFα dAb Fc variant S67A (Fc fusion, name in Kabat numbering)
chain: DIQMTQSPSSLSASVGDRVTITCRASQAIDSYLHWYQQKPGKAPKLLIYSASNLETGVPSRFSGSGAGTDFTLTISSLLPEDFATYYCQQVVWRPFTFGQGTKVEIKRV[human IgG1 Fc with changes left out]
B23: TNFα dAb Fc variant S67H (Fc fusion, name in Kabat numbering)
chain: DIQMTQSPSSLSASVGDRVTITCRASQAIDSYLHWYQQKPGKAPKLLIYSASNLETGVPSRFSGSGHGTDFTLTISSLLPEDFATYYCQQVVWRPFTFGQGTKVEIKRV[human IgG1 Fc with changes left out]
B24: TNFα dAb Fc variant S67K (Fc fusion, name in Kabat numbering)
chain: DIQMTQSPSSLSASVGDRVTITCRASQAIDSYLHWYQQKPGKAPKLLIYSASNLETGVPSRFSGSGKGTDFTLTISSLLPEDFATYYCQQVVWRPFTFGQGTKVEIKRV[human IgG1 Fc with changes left out]
B25: TNFα dAb Fc variant S67L (Fc fusion, name in Kabat numbering)
chain: DIQMTQSPSSLSASVGDRVTITCRASQAIDSYLHWYQQKPGKAPKLLIYSASNLETGVPSRFSGSGLGTDFTLTISSLLPEDFATYYCQQVVWRPFTFGQGTKVEIKRV[human IgG1 Fc with changes left out]
B26: TNFα dAb Fc variant S67P (Fc fusion, name in Kabat numbering)
chain: DIQMTQSPSSLSASVGDRVTITCRASQAIDSYLHWYQQKPGKAPKLLIYSASNLETGVPSRFSGSGPGTDFTLTISSLLPEDFATYYCQQVVWRPFTFGQGTKVEIKRV[human IgG1 Fc with changes left out]
B27: TNFα dAb Fc variant S67Q (Fc fusion, name in Kabat numbering)
chain: DIQMTQSPSSLSASVGDRVTITCRASQAIDSYLHWYQQKPGKAPKLLIYSASNLETGVPSRFSGSGQGTDFTLTISSLLPEDFATYYCQQVVWRPFTFGQGTKVEIKRV[human IgG1 Fc with changes left out]
B28: TNFα dAb Fc variant S67Y (Fc fusion, name in Kabat numbering)
chain: DIQMTQSPSSLSASVGDRVTITCRASQAIDSYLHWYQQKPGKAPKLLIYSASNLETGVPSRFSGSGYGTDFTLTISSLLPEDFATYYCQQVVWRPFTFGQGTKVEIKRV[human IgG1 Fc with changes left out]
B29: TNFα dAb Fc variant S76A (Fc fusion, name in Kabat numbering)
chain: DIQMTQSPSSLSASVGDRVTITCRASQAIDSYLHWYQQKPGKAPKLLIYSASNLETGVPSRFSGSGSGTDFTLTIASLLPEDFATYYCQQVVWRPFTFGQGTKVEIKRV[human IgG1 Fc with changes left out]
B30: TNFα dAb Fc variant S76D (Fc fusion, name in Kabat numbering)
chain: DIQMTQSPSSLSASVGDRVTITCRASQAIDSYLHWYQQKPGKAPKLLIYSASNLETGVPSRFSGSGSGTDFTLTIDSLLPEDFATYYCQQVVWRPFTFGQGTKVEIKRV[human IgG1 Fc with changes left out]
B31: TNFα dAb Fc variant S76H (Fc fusion, name in Kabat numbering)
chain: DIQMTQSPSSLSASVGDRVTITCRASQAIDSYLHWYQQKPGKAPKLLIYSASNLETGVPSRFSGSGSGTDFTLTIHSLLPEDFATYYCQQVVWRPFTFGQGTKVEIKRV[human IgG1 Fc with changes left out]

Molecular target: T1, recombinant human TNFα (CytoLab) (human, UniProt P01375 partial chain)
T1 construct: coated on the ELISA plate at 1 µg/ml; also called Tumour necrosis factor alpha
Test: ELISA on coated human TNFα

T1 sequence (P01375 77-233 limits assumed): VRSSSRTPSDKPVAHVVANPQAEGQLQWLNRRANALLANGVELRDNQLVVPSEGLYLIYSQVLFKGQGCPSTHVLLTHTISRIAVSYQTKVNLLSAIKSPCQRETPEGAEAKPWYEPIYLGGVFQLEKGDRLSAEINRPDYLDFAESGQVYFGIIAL

| Binder | A450 (AU) |
| --- | --- |
| B1 | 0.178 |
| B2 | 0.649 |
| B3 | 0.156 |
| B4 | 0.21 |
| B5 | 0.215 |
| B6 | 0.211 |
| B7 | 0.225 |
| B8 | 0.395 |
| B9 | 0.768 |
| B10 | 0.783 |
| B11 | 1.35 |
| B12 | 0.897 |
| B13 | 0.873 |
| B14 | 0.774 |
| B15 | 0.751 |
| B16 | 0.205 |

| Binder | A450 (AU) |
| --- | --- |
| B17 | 0.903 |
| B18 | 0.593 |
| B19 | 0.19 |
| B20 | 0.889 |
| B21 | 1.01 |
| B22 | 0.944 |
| B23 | 0.999 |
| B24 | 0.819 |
| B25 | 0.863 |
| B26 | 0.188 |
| B27 | 0.419 |
| B28 | 0.944 |
| B29 | 0.97 |
| B30 | 0.758 |
| B31 | 0.902 |
